# Assay results as given in paper PMC4336329 (PLoS ONE, 2015).
# Among all 310,000 compounds or so, about 14,000 (4.5%) showed an effect of 50% or more. The effect is printed as a negative number. Some of the results follow.
# Target: human ether-à-go-go-related gene (hERG) potassium channel (human, UniProt Q12809)
# Experiment: primary screen, population patch clamp on CHO cells stably expressing hERG
# 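Note: peak tail current of the secondary pulse compared with the same well before compound.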
# Chain of human ether-à-go-go-related gene (hERG) potassium channel (Q12809 whole entry, looked up): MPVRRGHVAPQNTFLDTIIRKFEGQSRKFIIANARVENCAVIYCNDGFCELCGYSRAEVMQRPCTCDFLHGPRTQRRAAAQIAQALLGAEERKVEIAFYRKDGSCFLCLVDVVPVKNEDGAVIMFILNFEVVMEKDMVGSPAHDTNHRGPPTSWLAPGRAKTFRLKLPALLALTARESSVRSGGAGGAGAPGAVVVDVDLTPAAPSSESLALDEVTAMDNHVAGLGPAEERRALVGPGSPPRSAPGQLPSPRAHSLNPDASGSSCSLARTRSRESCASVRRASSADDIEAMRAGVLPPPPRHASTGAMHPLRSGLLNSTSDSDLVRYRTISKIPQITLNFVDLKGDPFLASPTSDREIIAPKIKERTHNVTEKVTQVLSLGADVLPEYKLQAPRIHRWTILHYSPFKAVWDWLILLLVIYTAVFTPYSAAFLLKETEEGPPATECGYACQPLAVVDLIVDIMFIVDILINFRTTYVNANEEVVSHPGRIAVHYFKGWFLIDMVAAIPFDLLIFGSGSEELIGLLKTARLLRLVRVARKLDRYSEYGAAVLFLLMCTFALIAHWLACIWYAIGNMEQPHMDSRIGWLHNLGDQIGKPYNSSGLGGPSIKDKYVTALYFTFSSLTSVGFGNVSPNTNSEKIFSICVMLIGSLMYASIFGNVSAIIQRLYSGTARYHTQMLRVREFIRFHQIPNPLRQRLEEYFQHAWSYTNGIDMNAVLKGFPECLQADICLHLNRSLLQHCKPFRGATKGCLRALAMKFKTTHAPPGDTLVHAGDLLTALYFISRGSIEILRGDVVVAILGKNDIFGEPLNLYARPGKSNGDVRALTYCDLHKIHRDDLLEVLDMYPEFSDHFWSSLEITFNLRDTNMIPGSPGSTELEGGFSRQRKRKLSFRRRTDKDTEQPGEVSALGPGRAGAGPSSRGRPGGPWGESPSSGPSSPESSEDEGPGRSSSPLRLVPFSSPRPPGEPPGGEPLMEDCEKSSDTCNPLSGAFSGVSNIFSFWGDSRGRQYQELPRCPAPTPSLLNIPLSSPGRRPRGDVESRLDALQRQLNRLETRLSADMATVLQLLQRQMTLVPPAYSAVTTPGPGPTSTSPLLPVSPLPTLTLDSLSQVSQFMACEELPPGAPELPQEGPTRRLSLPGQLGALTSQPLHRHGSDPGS
row,SMILES,"hERG current change (%, negative = inhibition) at 10uM [%]"
1,O=C1CCC(=O)N1c1ccc(CSc2nnnn2C2CCCCC2)cc1,-3.22
2,O=C(NCC(c1ccco1)N1CCOCC1)C1CCCCC1 (stereo not shown),-0.0207
3,Cn1cnnc1SCC(=O)NC(=O)NC1CCCC1,-0.498
4,CCc1n[nH]c(=S)n1/N=C/c1ccc(N(C)c2ccccc2)cc1,18.8
5,Cc1ccccc1Cc1c(C)nc2nc(SCC(=O)N3CCC4(CC3)OCCO4)nn2c1C,-20.1
6,COc1ccc(-c2nnn(-c3cc(Cl)cc(Cl)c3)c2N)cc1,18.3
7,COc1ccccc1NS(=O)(=O)c1ccc2oc(SCC(=O)N3CCNC3=O)nc2c1,-21.6
8,O=C(Nc1ccc(F)cc1)C1CCCN(S(=O)(=O)c2ccc(-n3cnnn3)cc2)C1 (stereo not shown),-16.8
9,CCOc1ccc(NC(=O)Nc2cccc(C)n2)cc1,19.3
10,O=C(CCl)N(C1CCCC1)C1CCS(=O)(=O)C1 (stereo not shown),24.4
11,CCOC(=O)C1CCN(C(=O)COC(=O)c2oc3ccccc3c2C)CC1,-28.3
12,COCCCNCCCCOc1cccc(Br)c1.O=C(O)C(=O)O,-19.3
13,Cc1ccoc1C(=O)Nc1ccc(CC(=O)O)cc1,2.73
14,COc1cc(/C=c2/sc3nc(-c4ccccc4)c(-c4ccccc4)n3c2=O)cc(OC)c1OC,-3.82
15,c1ccc(Cc2nnc3sc(-c4ccc5c(c4)OCO5)nn23)cc1,5.05
16,CCC(C(=O)OCC(=O)Nc1ccccc1-c1ccccc1)c1ccccc1 (stereo not shown),2.58
17,N/C(=N\OC(=O)c1ccc(Br)o1)c1ccccn1,9.52
18,Cc1cc(C)c2nc(SCC#N)cc(C)c2c1,13.5
19,COc1cc(C(O)P(=O)(OCC(C)C)OCC(C)C)cc(OC)c1OC (stereo not shown),11.2
20,O=C(CSc1ncn[nH]1)NCCC(c1ccccc1)c1ccccc1,-2.61

row,SMILES,"hERG current change (%, negative = inhibition) at 10uM [%]"
1,CCOc1ccc(NC(=O)Cn2c(=O)n(CC3CCCO3)c(=O)c3ccccc32)cc1 (stereo not shown),-1.78
2,N#Cc1cccnc1Oc1ccccc1,8.55
3,COc1cccc(/C=N/NC(=O)CNC(=O)c2ccc(S(=O)(=O)N3CCCC3)cc2)c1OC,10.4
4,COc1cc(NC(=O)c2cccnc2)c(Cl)cc1NC(=O)c1ccccc1,2.88
5,COc1cc(/C(C)=N/NC(=O)C(O)(c2ccccc2)c2ccccc2)ccc1O,-10.3
6,CCOC(=O)c1sc(NCCNc2nc(C)c(C(=O)OCC)s2)nc1C,4.45
7,CCOC(=O)[C@@H]1[C@H]2COc3cc(OC)ccc3[C@@H]2N2C(=O)N(c3cccc(C)c3)C(=O)[C@@]12C,-5.14
8,O=S(=O)(Nc1cccc2cccnc12)c1ccccc1,16
9,CCN(Cc1ccccc1)C(=O)C1CCN(c2ncnc3c2nc2n3CCCCC2)CC1,-41.7
10,Cc1cccc(Cn2c(C)c(C)c3cc(C(=O)NCCN4CCOCC4)ccc32)c1,-26.6
11,CCN1CCCC1CNC(=O)C(=O)NC(C)c1ccccc1 (stereo not shown),13
12,CC(C)C(=O)Nc1nnc(Cc2ccccc2)s1,-2.21
13,Cc1[nH]n2c(=O)cc(C(C)(C)C)nc2c1-c1ccccc1,-10.6
14,COc1ccc(NC(=O)CCNC(=O)c2ccco2)cc1Cl,7.41
15,Cc1ccccc1NC(=O)c1cccc2nc3ccccc3nc12,13.8
16,CCCOC(=O)/C(=C\C=C\c1ccccc1)NC(=O)c1ccccc1,-7.78
17,CCC1c2ccc(C)n2CCN1C(=O)Nc1ccc(F)cc1 (stereo not shown),-20
18,Clc1ccccc1Cn1nnc2c(Nc3ccccc3)ncnc21,-0.775
19,COCCCNC(=O)c1cn(CCOC)c(=O)c2c1c1ccccc1n2C,12.9
20,O=C(NCc1ccc(F)cc1)C1CCCN1S(=O)(=O)c1ccccc1C(F)(F)F (stereo not shown),-13.4

row,SMILES,"hERG current change (%, negative = inhibition) at 10uM [%]"
1,NC(=O)C1CCN(C(=O)c2cc3c(s2)CCCCC3)CC1,-6.51
2,Cc1cc(SCC(=O)c2cccs2)nc2ccccc12,-4.07
3,C=CCC(NCc1ccccc1)c1ccc(OC)cc1.O=C(O)C(=O)O (stereo not shown),6.43
4,CC/C=C\C/C=C\C/C=C\CCCCCCCC(=O)O,8.25
5,C#Cc1ccc([C@H]2C=C(C(=O)N3CCN(Cc4ccccc4)CC3)O[C@@H](OCC)[C@@H]2CCCO)cc1,-19.6
6,C/C(CC(=O)C(F)(F)F)=N\NC(=O)/C(C#N)=C/N(C)C,9.1
7,Cc1ccsc1CNS(=O)(=O)c1ccc(F)cc1,-13.3
8,Cc1[nH]ccc(=O)c1OCc1ccccc1,20
9,Cc1ccc(C(=O)c2cc3ccccc3o2)cc1C,9.07
10,CCOC(=O)N1CCC(Nc2nc3ccccc3nc2NS(=O)(=O)c2ccc(Cl)cc2)CC1,-24.4
11,CCOc1ccc(NC(=O)CSc2n[nH]c(=O)n2-c2ccccc2)cc1,-2.15
12,Cc1ccc(/C=C/C(=O)Nc2nnc(C)s2)o1,8.47
13,COc1ccccc1C1C(C(=O)c2cc3ccccc3o2)=C(O)C(=O)N1CCN(C)C (stereo not shown),14.5
14,O=C(Nc1cc(=O)[nH]c2ncnn12)c1ccccc1,-4.79
15,CC(=O)N1CCN(c2ccc(NC(=O)c3ccc(C(C)(C)C)cc3)cc2)CC1,0.16
16,COc1ccc(N(CC(=O)NCCSc2ccccn2)S(C)(=O)=O)cc1,5.77
17,O=C(Cc1ccc(O)cc1)NC1CCCCCC1,21.5
18,NC(=O)C1(N2CCCCC2)CCN(C(=O)CSc2nc3ccccc3o2)CC1,-4.85
